These results are taken from a collection of fitness landscapes (doi:10.1126/science.1257360).

Some of the results follow. Some results are limits rather than exact numbers.

B1: PhoQ; a variant is named by its letters at X, in order, P23837 (parent)
chain: MKKLLRLFFPLSLRVRFLLATAAVVLVLSLAYGMVALIGYSVSFDKTTFRLLRGESNLFYTLAKWENNKLHVELPENIDKQSPTMTLIYDENGQLLWAQRDVPWLMKMIQPDWLKSNGFHEIEADVNDTSLLLSGDHSIQQQLQEVREDDDDAEMTHSVAVNVYPATSRMPKLTIVVVDTIPVELKSSYMVWSWFIYVLSANLLLVIPLLWVAAWWSLRPIEALAKEVRELEEHNRELLNPATTRELTSLVRNLNRLLKSERERYDKYRTTLTDLTHSLKTPLXXLQXXLRSLRSEKMSVSDAEPVMLEQISRISQQIGYYLHRASMRGGTLLSRELHPVAPLLDNLTSALNKVYQRKGVNISLDISPEISFVGEQNDFVEVMGNVLDNACKYCLEFVEISARQTDEHLYIVVEDDGPGIPLSKREVIFDRGQRVDTLRPGQGVGLAVAREITEQYEGKIVAGESMLGGARMEVIFGRQHSAPKDE

Variants of B1 are the subject of this assay. As to the kind of experiment: enrichment ratio after two sorts for PhoP signalling (ratio (wild type AVST 3.29)); higher = more functional. The following applies: with PhoP (E. coli).
Regarding VSMM, the enrichment ratio is 2.19.

For FIAV, the enrichment ratio is not above 0.25.

In the case of VSQP, the enrichment ratio was not above 0.25.

With SYAC, the enrichment ratio is not above 0.25.

In the case of HNPM, the enrichment ratio is not above 0.25.

On to QPRY, for which the enrichment ratio is not above 0.25.

Consider VVVL, for which the enrichment ratio was not above 0.25.

On to KDLH, for which the enrichment ratio is not above 0.25.

For the variant VKTI, the enrichment ratio was not above 0.25.

Consider DPSY, for which the enrichment ratio was not above 0.25.

With PTYH, the enrichment ratio is not above 0.25.

For WQTA, the enrichment ratio is not above 0.25.

Take VEYL: the enrichment ratio is not above 0.25.

As to TVWG, the enrichment ratio is not above 0.25.

Regarding VNRH, the enrichment ratio is not above 0.25.

GVSI: the enrichment ratio worked out at 2.12.

In the case of MYYP, the enrichment ratio was not above 0.25.

For IEIA, the enrichment ratio is not above 0.25.

In the case of LCMD, the enrichment ratio is not above 0.25.

With GHPR, the enrichment ratio was not above 0.25.

MHHA: the enrichment ratio was not above 0.25.

On to TLWH, for which the enrichment ratio is not above 0.25.

Take FPVV: the enrichment ratio was not above 0.25.

As for QFYL, the enrichment ratio was not above 0.25.

With MNAL, the enrichment ratio is 6.96.

In the case of QTEY, the enrichment ratio is not above 0.25.

Take WAVS: the enrichment ratio is not above 0.25.

Regarding DALM, the enrichment ratio was not above 0.25.

With QCPR, the enrichment ratio is not above 0.25.

KGWG: the enrichment ratio was not above 0.25.

For HIFL, the enrichment ratio was not above 0.25.

As for HCDR, the enrichment ratio was not above 0.25.

Regarding ADML, the enrichment ratio was determined as 21.8.

LMLI: the enrichment ratio is not above 0.25.

On to VRYF, for which the enrichment ratio is not above 0.25.

On to EQIV, for which the enrichment ratio was not above 0.25.

For the variant TTHP, the enrichment ratio is not above 0.25.

Regarding DGPM, the enrichment ratio was not above 0.25.

As for HPHH, the enrichment ratio is not above 0.25.

For the variant ACMI, the enrichment ratio turned out to be 21.

In the case of MFMW, the enrichment ratio is not above 0.25.

In the case of YQFP, the enrichment ratio was not above 0.25.

Consider DQFS, for which the enrichment ratio is not above 0.25.

For HQHA, the enrichment ratio was not above 0.25.

As for NVLW, the enrichment ratio was not above 0.25.

Take AYDY: the enrichment ratio is not above 0.25.

With FGCH, the enrichment ratio is not above 0.25.

For the variant WAKK, the enrichment ratio is not above 0.25.

Consider IQTE, for which the enrichment ratio is not above 0.25.

As to FKLV, the enrichment ratio came to 6.1.

For EVKS, the enrichment ratio was not above 0.25.

In the case of TMVP, the enrichment ratio was not above 0.25.

For HFKQ, the enrichment ratio is not above 0.25.

For the variant ASQR, the enrichment ratio was not above 0.25.

Consider MKGV, for which the enrichment ratio is not above 0.25.

As to LDHT, the enrichment ratio was not above 0.25.

Take REMY: the enrichment ratio is not above 0.25.

Turning to GNKL, the enrichment ratio is not above 0.25.

IWGR: the enrichment ratio was not above 0.25.

With HCTK, the enrichment ratio is not above 0.25.

As for PDYF, the enrichment ratio was not above 0.25.

For VIMR, the enrichment ratio was not above 0.25.

For WIYH, the enrichment ratio is not above 0.25.

For NWWY, the enrichment ratio is not above 0.25.

In the case of TGSF, the enrichment ratio came to 5.31.

With MVQR, the enrichment ratio was not above 0.25.

YKIS: the enrichment ratio is not above 0.25.

As for QLCL, the enrichment ratio was not above 0.25.

On to HGPI, for which the enrichment ratio was not above 0.25.

Regarding HMKC, the enrichment ratio is not above 0.25.

Consider KTVH, for which the enrichment ratio was not above 0.25.

For the variant SKHN, the enrichment ratio worked out at 2.27.

For RILW, the enrichment ratio was not above 0.25.

On to PSKG, for which the enrichment ratio was not above 0.25.

In the case of SGFM, the enrichment ratio is 5.94.

Regarding HEEP, the enrichment ratio amounted to 0.824.

Take SPWH: the enrichment ratio is not above 0.25.

Regarding VENS, the enrichment ratio is not above 0.25.

With KAYG, the enrichment ratio is not above 0.25.

In the case of RKHY, the enrichment ratio was not above 0.25.

Turning to YVPN, the enrichment ratio is not above 0.25.

As for NWGY, the enrichment ratio was not above 0.25.

Turning to VQGW, the enrichment ratio is not above 0.25.

Consider PIDM, for which the enrichment ratio was not above 0.25.
